Biological target: α7 nAChR subtype (Rattus norvegicus (Rat), UniProt Q05941)
Conditions: Table 5, effect of the 2-(3-pyridinyl)methyl substituent; read-out: a7 Ki

Chain of α7 nAChR subtype (Q05941 23-502 limits assumed): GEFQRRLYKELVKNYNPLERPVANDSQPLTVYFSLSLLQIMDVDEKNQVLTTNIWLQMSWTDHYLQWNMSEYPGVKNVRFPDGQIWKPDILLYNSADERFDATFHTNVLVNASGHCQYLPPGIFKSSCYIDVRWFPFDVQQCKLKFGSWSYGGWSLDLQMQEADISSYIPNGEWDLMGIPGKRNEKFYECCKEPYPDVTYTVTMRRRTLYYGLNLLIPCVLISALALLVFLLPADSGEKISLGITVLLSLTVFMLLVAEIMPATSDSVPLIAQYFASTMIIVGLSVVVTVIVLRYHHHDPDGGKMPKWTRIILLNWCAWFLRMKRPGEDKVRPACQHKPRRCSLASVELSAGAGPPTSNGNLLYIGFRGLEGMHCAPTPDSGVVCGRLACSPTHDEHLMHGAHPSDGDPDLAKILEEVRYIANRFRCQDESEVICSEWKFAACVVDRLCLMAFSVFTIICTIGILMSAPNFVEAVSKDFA

## O=C(Nc1ccc(Br)cc1)OC1CN2CCC1CC2 (stereo not shown)
  Ki: 40 nM

From patent US8541447B2 (priority 2003, dated 2013)
